# In PubChem BioAssay AID488969 (Vanderbilt High Throughput Screening Facility, 2010):
# Whole data set: some 110,000 compounds, median “z-score” near -0.1, cut for the highest 2% near 2. This is one part of the list. The source made the active and inactive calls.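 The calls were made as follows: active = z-score in the third read window above 3 or below -3; inactive = the rest.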
# Molecular target: Metabotropic glutamate receptor 8 (Rattus norvegicus) (UniProt P70579)
# Experiment: rat mGluR8 modulators via GIRK flux, primary screen, cell-based, thallium flux, HTS (AID 488969)
# Details: HEK293 rat mGluR8, GIRK (G protein-gated inwardly rectifying potassium channel) thallium flux, FluoZin2; at 10 µM; stronger effect = higher value; submaximal glutamate (EC20) added with thallium
# UniProt P70579, sequence (P70579 whole entry, looked up): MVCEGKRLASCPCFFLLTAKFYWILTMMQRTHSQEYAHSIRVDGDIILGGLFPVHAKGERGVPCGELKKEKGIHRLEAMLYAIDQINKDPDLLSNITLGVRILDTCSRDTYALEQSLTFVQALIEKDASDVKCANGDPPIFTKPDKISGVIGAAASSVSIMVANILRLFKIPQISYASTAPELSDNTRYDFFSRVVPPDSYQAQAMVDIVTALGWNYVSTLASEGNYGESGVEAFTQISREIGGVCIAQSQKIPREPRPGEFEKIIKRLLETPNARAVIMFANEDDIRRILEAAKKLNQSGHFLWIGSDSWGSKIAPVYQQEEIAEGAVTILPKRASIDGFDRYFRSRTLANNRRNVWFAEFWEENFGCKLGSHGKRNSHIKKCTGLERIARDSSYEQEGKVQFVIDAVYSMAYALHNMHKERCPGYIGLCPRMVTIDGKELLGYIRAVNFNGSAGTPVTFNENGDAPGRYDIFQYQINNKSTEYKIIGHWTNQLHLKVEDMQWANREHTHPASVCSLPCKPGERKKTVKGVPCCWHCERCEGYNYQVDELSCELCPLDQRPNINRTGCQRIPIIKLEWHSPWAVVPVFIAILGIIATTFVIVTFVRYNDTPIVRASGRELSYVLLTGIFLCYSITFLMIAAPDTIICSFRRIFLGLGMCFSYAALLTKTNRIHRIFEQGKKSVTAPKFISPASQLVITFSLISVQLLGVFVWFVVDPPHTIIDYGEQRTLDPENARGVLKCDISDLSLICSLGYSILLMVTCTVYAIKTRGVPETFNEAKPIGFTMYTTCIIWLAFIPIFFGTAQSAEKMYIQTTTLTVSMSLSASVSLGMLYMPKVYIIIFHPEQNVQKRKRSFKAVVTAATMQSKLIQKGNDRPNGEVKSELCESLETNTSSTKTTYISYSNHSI
row,SMILES,z-score
1,O=C(CN1CCN(Cc2ccccc2)C1=O)NCc1cccs1,-0.136
2,CCOC(=O)c1cccnc1SCC(=O)NCc1ccccc1,-0.142
3,Cc1csc(=N)n1CC(=O)N1CCc2ccccc21,0.237
4,O=C(CCN1CCCCC1)N/N=C/c1ccc(Br)cc1,-1.67
5,CCc1nnc(NC(=O)c2cccc(S(=O)(=O)N(C)c3ccccc3)c2)s1,-1
6,CC(C)OC(=O)c1nn2c(C(F)(F)F)cc(-c3ccc(Br)o3)nc2c1Br,0.469
7,O=C(O)CCC(=O)N1CCN(c2nc3ccccc3s2)CC1,0.225
8,NC(=O)C1CCN(C(=O)CSc2nc3ccccc3o2)CC1,-0.000236
9,Cc1cccc(-c2nnn(Cc3nnc(NC(=O)c4ccccc4)s3)n2)c1,-0.0603
10,CCCS(=O)(=O)N1CCCC(C(=O)N2CCOCC2)C1 (stereo not drawn),-0.0605
11,CCOC(=O)c1c(C)[nH]c(C)c1C(=O)COC(=O)c1cc2ccccc2cc1O,-0.189
12,CCS(=O)(=O)N1CCC(C(=O)Nc2cccc(C(C)=O)c2)CC1,0.465
13,O=C(O)[C@@H]1CCCN1c1ncnc2sc3c(c12)CCC3,-1.31
14,O=C(O)/C=C\C(=O)Nc1ccccc1C(=O)NCc1ccccc1,0.0517
15,CC(C)Oc1ccc(CCc2n[nH]c(=S)n2Cc2ccccc2)cc1,0.446
16,CCOc1ccc(N2C(=O)/C(=C/c3ccc(C)o3)N(C)C2=S)cc1,0.188
17,COc1cccc(N=Nc2c(=O)[nH]n3c(=O)cc(C)[nH]c23)c1,-0.34
18,COC(=O)c1ccccc1NC(=O)CN(c1ccccc1)S(=O)(=O)N(C)C,-1.07
19,CS(=O)(=O)N1N=C(c2ccc(Cl)cc2)CC1c1cccs1 (stereo not drawn),-0.359
20,CCCCOc1ccc(C(=O)OC(C)CN(C)C)cc1 (stereo not drawn),0.416
21,Cc1cc(Oc2ccccc2F)nc(NCc2ccccc2)n1,-0.085
22,CCC(=O)Oc1c(C(=O)CC)cc2c(C)cc(=O)oc2c1C,-0.0867
23,CN(C)C(=S)Nc1ccc([N+](=O)[O-])cc1,-0.23

row,SMILES,z-score
1,COc1ccc(NC(=O)CCN2CCN(S(=O)(=O)c3ccc(C(C)C)cc3)CC2)cc1,-0.149
2,CCOc1ccccc1NC(=O)C1CCCN(S(=O)(=O)c2ccc(OC)c(C)c2)C1 (stereo not drawn),-0.663
3,CC(Oc1ccc(-c2ccccc2)c(F)c1)c1ccn(S(=O)(=O)c2ccc(Br)cc2)n1 (stereo not drawn),-0.236
4,CCC(CO)Nc1nc(CN2CCCCC2)nc2scc(-c3ccccc3)c12 (stereo not drawn),-0.267
5,COC(=O)c1sccc1NC(=O)CSc1ccccc1NS(=O)(=O)c1ccccc1Cl,active: 3.17
6,CNC(=S)N(CCc1cccc(C)c1)Cc1cc2cc(OC)c(OC)cc2[nH]c1=O,-0.114
7,O=C(CN1CCN(c2ccccn2)CC1)N1c2ccccc2CCc2ccccc21,0.015
8,CCC1(C)Cc2c(sc3nc(SC)nc(N)c23)CO1 (stereo not drawn),0.264
9,Cc1ccc(-c2noc(C3CCN(S(C)(=O)=O)CC3)n2)o1,-0.118
10,O=c1c2cnn(-c3ccccc3)c2nc(-c2cccs2)n1-c1ccc(Cl)cc1,-0.161
11,O=C(CCc1ccccc1)NCCSCc1c(F)cccc1Cl,-0.181
12,Nc1nc(-c2ccco2)c(-c2ccco2)s1,1.04
13,CCOC(=O)c1c(NC(NC(C)=O)C(Cl)(Cl)Cl)sc(C(C)=O)c1C (stereo not drawn),-0.687
14,COc1ccc(-c2cc(C(=O)Nc3cccc(C(C)=O)c3)no2)cc1,-0.222
15,Cc1ccc(S(=O)(=O)NN=C2CCC(C(C)(C)C)CC2)cc1[N+](=O)[O-] (stereo not drawn),-0.696
16,Cc1cc(C)c(NC(=O)C2c3ccccc3Oc3ccccc32)c(C)c1,0.361
17,CC(C)(C)N=Cc1cc(-c2ccccc2)sc1O,-0.023
18,COCCCNC(=O)Cn1cc(C(=O)C2CC2)c2ccccc21,-0.146
19,O=C(C1CCCN(S(=O)(=O)c2cnc[nH]2)C1)N1CCN(c2ccc(Cl)cc2)CC1 (stereo not drawn),-0.154
20,O=C(Nc1cccc2c1CCCC2)C1CCCN(S(=O)(=O)c2cccc3nonc23)C1 (stereo not drawn),0.0516
21,COc1ccc(Nc2ccc(S(=O)(=O)N3CCCCC3)cc2[N+](=O)[O-])cc1Cl,0.547
22,Cc1ccc(/C=C2/SC(=S)N(CC(=O)Nc3ncc(Cc4ccc(C)cc4)s3)C2=O)cc1,-0.0148
23,CCC(=O)Nc1ccc(C(=O)OCC(=O)c2ccc(C)c([N+](=O)[O-])c2)cc1,0.0768

row,SMILES,z-score
1,Nc1ccc(Cc2ccc(N)c(C(=O)O)c2)cc1C(=O)O,-0.243
2,O=S(=O)(c1ccccc1)N1CCN(S(=O)(=O)c2ccccc2)C1,-0.0762
3,COc1ccc(-c2nnc(SCCc3ccccc3)n2N)cc1,0.0423
4,Cc1cc(Nc2ncc(Cl)cc2Cl)n[nH]1,0.428
5,O=C(COC(=O)CNC(=O)C12CC3CC(CC(C3)C1)C2)NC1CCS(=O)(=O)C1 (stereo not drawn),0.0567
6,O=C(Cn1cc2c(n1)CCCCC2)Nc1c(F)c(F)cc(F)c1F,0.762
7,ClC(Cl)(c1nnnn1-c1ccccc1)c1nnnn1-c1ccccc1,-0.205
8,CCOc1ccc(-c2cc(CCCC(=O)N3CCN(c4ccc(OC)cc4)CC3)no2)cc1,0.578
9,Cc1ccc(NC(=O)CN(C)S(=O)(=O)c2cccc3nsnc23)cc1C,-0.325
10,COc1ccc(NC(=O)c2ccc(COc3ccccc3OC)o2)cc1OC,-0.19
11,Fc1ccccc1-c1nc(-c2ccccc2)no1,-0.104
12,CCOc1cc(NC(=S)NCc2ccco2)c(OCC)cc1NC(=O)C1CC1,0.717
13,COC(=O)c1ccccc1OCC(=O)NC1CCCCC1,-0.229
14,CCCNC(=O)CCc1c(C)nc2nc(-c3cc(OC)cc(OC)c3)nn2c1C,0.6
15,COc1cccc(OCC(=O)N(Cc2nc(-c3ccc(Cl)cc3)no2)C(C)C)c1,0.0492
16,O=S(=O)(c1cccc2nsnc12)N1CCc2ccccc2C1,-0.543
17,N#CC1=C(N)N(c2ccccc2)C(=O)C1,-0.0445
18,Cc1nc(-c2coc3cc(O)c(C)cc3c2=O)cs1,-0.557
19,CCOc1ccc(N=C2NC(=O)S/C2=C\c2ccc(OC)cc2)cc1,-0.262
20,CS(=O)(=O)NC1CCN(Cc2ccccc2)CC1,-0.106
21,CC1=C(Sc2ccccn2)C(=O)NC(C)(C)C1,0.338
22,COc1ccc(NC(=O)c2ccc(COCC(F)(F)F)cc2)cc1OC,-0.575
23,CCc1ccc(C(C(=O)NC2CCCC2)N(C(=O)/C=C/C(=O)Nc2cc(C)on2)c2ccccc2C)cc1 (stereo not drawn),-1.04

row,SMILES,z-score
1,COc1c(C)cc(Br)cc1C(=O)O,-0.248
2,CCOC(=O)/C(=N\Nc1ccccc1)S(=O)(=O)c1ccccc1,-0.623
3,O=C(NCCCn1ccnc1)c1cc(-c2cccs2)on1,-0.401
4,COc1ccc(CCNC(=O)CSc2nc3c(c(=O)n(C)c(=O)n3C)n2C(C)C)cc1OC,-0.0176
5,CCOC(=O)Cn1c2c(c(=N)c3c1CCC3)CCC2,0.248
6,O=C(Cc1ccc(S(=O)(=O)N2CCCC2)s1)NC1CCCCCC1,-0.143
7,COc1ccc(Nc2ncnc3sc(-c4ccccc4)cc23)cc1OC,-0.275
8,COc1ccccc1OCc1ccc(C(=O)NCc2cccnc2)o1,0.168
9,CCOC(=O)N/N=C(\C)c1ccc(OC(F)F)cc1OC(F)F,-0.0776
10,COc1ccccc1-c1c(-c2ccc(OCC(=O)NN)cc2O)n[nH]c1C(F)(F)F,-0.126
11,COc1ccccc1NS(=O)(=O)c1cccc(C(=O)OCC(=O)Nc2cc(C)on2)c1,-0.0829
12,CN(C)c1nc(NCc2ccccc2)nc(SCC(=O)Nc2ccccc2)n1,-0.0683
13,N#C/C(=C(/O)COC(=O)CCC1CCCCC1)c1nc2ccccc2[nH]1,0.153
14,Cc1cc([N+](=O)[O-])nn1CC(=O)N1N=C(C(F)F)CC1(O)C(F)F (stereo not drawn),-0.152
15,Cc1cc(=O)[nH]c(SCC(=O)NCc2ccco2)n1,-0.0757
16,Cc1nn(-c2ccccc2)c2nc3c(cc12)C(=O)CCC3,0.172
17,Cc1cc(NC(=O)Cn2nc(C(F)(F)F)c3c2CCCC3)no1,0.876
18,CC1CN(C(=O)c2ccccc2Sc2ccccc2C#N)CC(C)O1 (stereo not drawn),0.335
19,COc1ccccc1CC(=O)N1CCN(c2cccc(C(F)(F)F)c2)CC1,0.359
20,O=S(=O)(NC1=NCCC1)c1cccs1,-0.13
21,COC(=O)N1CCN(c2ccc(Cl)c(Cl)c2)CC1,0.194
22,N#Cc1ccc(CSc2nnc(-c3ccccc3)n2Cc2ccco2)cc1,-0.289
23,CC(C)(C)C(=O)Nc1cccc(-c2nc3ccccc3[nH]2)c1,-0.137

row,SMILES,z-score
1,CCOC(=O)C(C)n1cnc2c(nnn2Cc2ccc(C)cc2)c1=O (stereo not drawn),0.981
2,COc1ccc(-c2nsc3c(N4CCCCC4)ncnc23)cc1,0.0276
3,CN(C)S(=O)(=O)c1cccc(NC(=S)Nc2ccc(Cl)cc2Cl)c1,active: 7.58
4,CCC1(C)Cc2ccccc2-c2c1c(=O)n(Cc1ccccc1)c1nnnn21 (stereo not drawn),0.314
5,CCc1nnc(NC(=O)CSc2nccn2-c2cc(C)cc(C)c2)s1,-0.56
6,COc1ccccc1C(CC(=O)Nc1nccs1)c1ccco1 (stereo not drawn),-0.974
7,O=S(=O)(c1ccc(Cl)cc1)n1ccc2cccnc21,-0.313
8,Cc1cc(C)n(CCc2nc(-c3cc4ccccc4o3)cs2)n1,-0.767
9,O=C1c2ccccc2-c2ncnc3cccc1c23,0.183
10,CCOC(=O)c1c(C)nc2c(C#N)cnn2c1C,0.00137
11,O=C(NCc1ccco1)c1ccc(Cn2cc([N+](=O)[O-])cn2)o1,0.638
12,CN(C)c1ccc(NS(=O)(=O)c2cccc(Cl)c2)cc1,-0.342
13,Cc1ccccc1OCC(=O)N1N=C(C(F)(F)F)CC1(O)C(C)(C)C (stereo not drawn),1.61
14,O=C(NNC(=S)Nc1ccccc1)C1CC1,-0.336
15,N#C/C(=C\c1cccnc1)C(=O)Nc1cccc2ccccc12,-0.463
16,CCNC(=O)NC(=O)CSc1nc2ccccc2n1CC(C)C,-0.0199
17,CC(C)(C)C(=O)/C=C(\N)c1ccccn1,0.263
18,CN(C(=O)c1cnc2n(c1=O)CCS2)C1CCCCC1,-0.376
19,CN(C(=O)COC(=O)c1c[nH]c(=O)[nH]c1=O)C1CCCCC1,-0.125
20,O=Cc1ccc(OCC(=O)NC(=O)NC2CCCCC2)cc1,-0.481
21,COc1ccc(S(=O)(=O)N(c2onc(C)c2Cl)S(=O)(=O)c2ccc(OC)c(OC)c2)cc1OC,-0.165
